# Experimental data: PubChem BioAssay AID1345083 (National Center for Advancing Translational Sciences (NCATS), 2018)
# About 6,200 (6.6%) of roughly 94,000 compounds were called active. This list was built around the results that the source calls inconclusive (neither active nor inactive); the mix of calls is not that of the screen. The call rests on the fitted dose curve; in most records, active means well fitted inhibition curve with a large enough effect; inconclusive means small, poorly fitted or top-dose-only effect; inactive means flat fitted curve, though single readings scatter. A potency beside an inconclusive call is a rough fit, not a confirmed value.
# Assay: Cytotoxic Profiling in HEK 293 Cell Line of Diverse Libraries Using Quantitative High-Throughput Screening; further: nearly all actives have a fitted effect of over 60% in size
# Details: HEK 293 viability, ATP luminescence (CellTiter-Glo), 48-72 h; activity change, negative = cytotoxicity: at 115 µM (top of the series) unless noted; series mostly up to 115 µM
# Procedure, shortened: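 ATP-coupled CellTiter-Glo luminescence served as viability read-out, recorded 10 min after reagent addition at room temperature. HEK 293 cells, 250 cells/well, had been incubated with pintool-transferred compound for 48 or 72 hr at 37 degree Celsius.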
# On the % scale 0 is the no-effect control and ±100 the full control effect; potency means the concentration at half of the fitted maximal effect; tags describe the fitted curve by direction and shape.
Structure (SMILES),Potency,"activity change, negative = cytotoxicity",outcome
COc1ccccc1-c1ncc(CNc2ncncn2)s1,"inconclusive: 39.8 µM [inhibitor, full curve, poor fit]",,
Cc1noc(C)c1-c1cc2c(cc(C)n2C)c(Nc2ccncn2)n1,"inconclusive: 20 µM [inhibitor, partial curve, poor fit]",,
O=C1CC(c2ccccc2)N(S(=O)(=O)c2ccccc2)CCCCCCN1 (centres undefined),,inactive: -28.5%,
COc1ccc(-c2cc(N3CCC(NC(=O)c4cccc(C#N)c4)CC3)n[nH]2)cc1,"inconclusive: 50.1 µM [inhibitor, partial curve, poor fit]",,
CN1[C@@H](CCC(=O)NCc2ccco2)CNC(=O)[C@@H]2[C@H]1CCN2Cc1cccc(OC(F)(F)F)c1,"inconclusive: 44.7 µM [inhibitor, full curve, poor fit]",,
CCCc1noc(-c2ccn3c(CNC(=O)c4cccc(N(C)C)c4)nnc3c2)n1,"inconclusive: 100 µM [inhibitor, single point]",,
COc1ccc(Nc2ncc(-c3ccccc3OC)c3c2OCC3)cc1,"inconclusive: 56.2 µM [inhibitor, full curve, poor fit]",,
O=C(Cn1ccn2nc(-c3ccc(F)cc3)c(CO)c2c1=O)Nc1cc(F)ccc1Cl,"inconclusive: 79.4 µM [inhibitor, single point]",,
COc1ccccc1C(=O)N1C[C@@H](CO)[C@H](NC(=O)c2ccccc2)C1,,,inactive
C[C@@H](c1ccccc1)N1C(=O)[C@@H]2CN(C(=O)c3cccnc3)CCN2C1=O,,inactive: -4.92% [at 172 µM],
C=CCO[C@@H]1CCN2C(=O)c3cc(-c4cc(Cl)ccc4OC)ccc3NC(=O)[C@H]12,active: 63.1 µM,,
O[C@]1(c2ccccc2)CCN(Cc2ccncc2)C[C@H]1N1CCCC1,"inconclusive: 50.1 µM [inhibitor, partial curve, poor fit]",,
Cc1ccsc1C(=O)N1CCCC1c1noc(COc2ccc(F)cc2)n1 (centres undefined),"inconclusive: 35.5 µM [inhibitor, partial curve, poor fit]",,
CSc1ccc(-c2ccc3c(c2)C(=O)N2CCN(C(=O)CCC(=O)O)C[C@@H]2C(=O)N3)cc1,,,inactive
Cc1ccc(S(=O)(=O)N2CCCC(CCC(=O)N(C)C)C2)cc1 (centres undefined),,inactive: -7.42%,
COc1ccc(-c2noc([C@@H]3C[C@@H](O)CN3Cc3ccc(C)cc3)n2)cc1,"inconclusive: 126 µM [inhibitor, single point]",,
COc1ccccc1-c1cccc(CN2CCC(N[S+](=O)([O-])c3ccccc3)CC2)c1,active: 39.8 µM,,
Cc1ccc(Cn2cccc2-c2nc(-c3ccc(F)cc3)no2)cc1,,inactive: 20.2%,
O=C(NCc1ccccc1F)c1ccc2nc(-c3ccccn3)oc2c1,active: 70.8 µM,,
CC(C)CS(=O)(=O)N[C@H](C)c1onc(-c2ccc(F)cc2)c1C(=O)O,"inconclusive: 126 µM [inhibitor, single point]",,
COc1ccccc1N1CCN(C(=O)C(C)[C@@H]2CCc3c(C)cc(OCCN4CCOCC4)c(C)c3C2)CC1 (some centres undefined),active: 22.4 µM,,
COc1ccc(-c2ccc(COc3ccc4c(cnn4CCC(=O)O)c3)cc2)c(C)c1,"inconclusive: 70.8 µM [inhibitor, partial curve, poor fit]",,

Structure (SMILES),Potency,"activity change, negative = cytotoxicity",outcome
COc1ccccc1C(=O)NC[C@@H]1C=C(C)[C@H](Cc2nc3ccncc3[nH]2)C[C@H]1C(C)C,active: 35.5 µM,,
O=C1C(N2CCN(S(=O)(=O)c3cccc(F)c3)CC2)CCN1CCc1ccccc1 (centres undefined),"inconclusive: 56.2 µM [inhibitor, partial curve, poor fit]",,
Cc1cccc(NC(=O)N2C[C@@H](F)C[C@H]2C(=O)N2CCc3ccccc3C2)c1,,inactive: -6.2%,
CC(C)c1ccc(C(=O)N2CCc3[nH]nc(C(=O)NCCCc4ccccc4)c3C2)cc1,,inactive: -0.878%,
Cn1cc(-c2cnc3[nH]cc(CC(=O)Nc4ccc(C(F)(F)F)cc4)c3c2)cn1,"inconclusive: 63.1 µM [inhibitor, full curve, poor fit]",,
COc1ccc(-c2cc(C[C@@H]3CC[C@H](O)[C@@H](CNC(=O)C(C)(C)C)O3)no2)cc1,,inactive: -27.6% [at 172 µM],
COCc1nc2nccc(-c3ccc4c(c3)OCCCO4)n2n1,,inactive: -2.8%,
COCCOc1ncccc1-c1noc([C@@H]2CCCN2C(C)C)n1,,inactive: -22.2% [at 172 µM],
O=C(Nc1ccccc1)N1CCCC(Cn2c(C3CC3)nc3cccnc32)C1 (centres undefined),,inactive: -1.87%,
CCc1ccc(CN2CCCC(CNC(=O)c3cccc(OC)c3OC)C2)cc1 (centres undefined),"inconclusive: 79.4 µM [inhibitor, partial curve, poor fit]",,
C[C@]1(CO)[C@H]2Cc3sc(NC(=O)c4ccc(F)cc4)nc3[C@@H](CC(=O)NCc3cccs3)[C@]2(C)CC[C@H]1O,"inconclusive: 56.2 µM [inhibitor, partial curve, poor fit]",,
CCOc1ccccc1NC(=O)Cn1c(-c2cccc(Cl)c2)nc(C)c(CCO)c1=O,"inconclusive: 44.7 µM [inhibitor, partial curve]",,
COc1ccc(-c2cc3c(=O)n(CCNC(=O)c4c(F)cccc4Cl)ccn3n2)cc1,"inconclusive: 35.5 µM [inhibitor, full curve]",,
S=C(NC1CCCCC1)N[C@H]1CO[C@H]2[C@@H]1OC[C@@H]2n1nnnc1Oc1ccc(-n2ccnc2)cc1,"inconclusive: 56.2 µM [inhibitor, partial curve, poor fit]",,
COc1cccc(-c2ccc(C(=O)N3CCC(NC(=O)Cc4ccc(C(F)(F)F)cc4)CC3)cc2)c1,"inconclusive: 20 µM [inhibitor, full curve, poor fit]",,
O=C(c1cccc(Cl)c1)N1CCC2(CC1)N=C(c1ccc(Br)cc1)NO2,"inconclusive: 100 µM [inhibitor, single point]",,
COc1ccc2c(c1)CCN=C2C[C@H]1CN(C(=O)C2CC2)CC[C@H]1CC(=O)O,,inactive: 2.56% [at 172 µM],
CN1CCN(c2ccc(-c3cc4c(ccn4C)c(C(=O)NCc4cccnc4)n3)cc2)CC1,active: 28.2 µM,,
Cc1noc(C)c1[S+](=O)([O-])N1CCN(Cc2ccccc2-c2cccnc2)CC1,"inconclusive: 50.1 µM [inhibitor, partial curve, poor fit]",,
COCCOc1ncccc1-c1noc([C@@H]2CCCN2CC(C)(C)C)n1,active: 63.1 µM,,
O=C(Nc1cc(C2CC2)nn1-c1ccccc1)c1cccc(Br)c1,"inconclusive: 79.4 µM [inhibitor, partial curve]",,
COC(=O)[C@@H]1Cc2c([nH]c3ccccc23)[C@H]2C[C@@H](NC(C)C)C[C@@H](c3ccc(C)cc3)N21,active: 35.5 µM,,

Structure (SMILES),Potency,"activity change, negative = cytotoxicity",outcome
O=C(NC1CCCC1)c1ccc2c(c1)n(Cc1ccccc1)c(=O)c1ccnn12,"inconclusive: 50.1 µM [inhibitor, partial curve, poor fit]",,
Cc1ncc(CN2CCC3(CC2)CCN(Cc2ccoc2)CC3CO)n1C (centres undefined),,,inactive
COc1ccc(-c2nc(C3CC3)nc3c2CN([S+](=O)([O-])c2ccccc2)CC3)cc1,,inactive: 2.27%,
CN1CCC2(C1)CN(CC1CCOCC1)c1ccc(C(=O)NCC(F)(F)F)cc12 (centres undefined),,inactive: -18.9% [at 172 µM],
COc1ccccc1C(=O)N1CCn2c(nnc2-c2ccncc2)C1,,inactive: 1.62%,
O=C(Nc1cccc2ccccc12)O[C@@H]1CO[C@H]2[C@@H]1OC[C@@H]2NC(=O)c1ccco1,,inactive: -18.7% [at 172 µM],
COCCOc1ccc2c(n1)CCN(C(=O)Cc1cccc(F)c1)C2,"inconclusive: 22.4 µM [inhibitor, full curve, poor fit]",,
CC(C)CCN1CCC2(C1)C(=NC1CCCCC1)NC(=O)N2c1cc(F)cc(F)c1 (centres undefined),"inconclusive: 50.1 µM [inhibitor, partial curve, poor fit]",,
CC(=O)NC1(C)CN(Cc2ccc(-c3ccc(Oc4ccccc4)cc3)s2)C1,active: 28.2 µM,,
Cc1noc(-c2ccc(OC(F)(F)F)cc2)c1C(=O)NCc1ccccc1Cl,"inconclusive: 56.2 µM [inhibitor, partial curve, poor fit]",,
C=CCN(C)C(=O)[C@@H]1Cc2cn(Cc3nccn3C)c3cccc(c23)[C@H](CC(C)C)N1,active: 100 µM,,
O=C(CCn1cncn1)N1CCOc2c(O)cc(-c3cccc(Cl)c3)cc2C1,"inconclusive: 56.2 µM [inhibitor, partial curve, poor fit]",,
CCN(Cc1ccncc1)C(=O)c1cc(CN2CCC(Cc3ccccc3)CC2)on1,"inconclusive: 50.1 µM [inhibitor, partial curve, poor fit]",,
O=C(NC1CCN(Cc2ccccc2)CC1)c1cc2n(n1)CC(c1ccc(Cl)cc1)OC2 (centres undefined),"inconclusive: 35.5 µM [inhibitor, partial curve, poor fit]",,
COc1ccc(NC(=O)O[C@@H]2C=C[C@H](c3c(C)nn(-c4ccccc4C)c3C)C2)cc1,"inconclusive: 89.1 µM [inhibitor, partial curve]",,
O=C(Nc1ccccc1Cl)N1CCC(Oc2ncccc2C(=O)N2CCCCC2)C1 (centres undefined),,inactive: -19.7%,
CCN1CC(c2ccccc2)CC2(CCN(Cc3cnc(SC)nc3)CC2)C1 (centres undefined),"inconclusive: 50.1 µM [inhibitor, partial curve, poor fit]",,
Cc1cc(C)n(CCC(=O)N2CCCCCC2c2nnc(-c3ccccc3)o2)n1 (centres undefined),"inconclusive: 89.1 µM [inhibitor, single point]",,
c1ccc(-c2ccc3ncc(Nc4cccnc4)n3n2)cc1,"inconclusive: 141 µM [inhibitor, single point]",,
CCC(=O)N(C1CCOCC1)C1CCN(S(=O)(=O)c2ccc(Cl)cc2C)CC1,"inconclusive: 89.1 µM [inhibitor, single point]",,
